# Variants at the background level are over-represented here.
# B1: tRNA (parent)
# chain: CUCUCGGUAGCCAAGUUGGUUUAAGGCGCAAGACUUUAAUUUAUCACUACGAAAUCUUGAGAUCGGGCGUUCGACUCGCCCCCGGGAGAUUUUUUCCUCGAGCAA
# Variants of: B1
# Assay: nonsense suppression (GFP-seq) (ratio to wild type); higher = more function; SUP4oc tRNA, yeast GFP reporter sort-seq
# How it was run: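 Each variant's nonsense suppression (GFPSEQ) is a cell-share-weighted bin median GFP/RFP relative to the unmutated parent tRNA. Yeast with genome-integrated tRNA variants from a ~3% random-mutation library, a galactose-driven GFP ochre reporter and RFP were grown in raffinose/galactose medium with 80 mg/L adenine, then sorted into GFP/RFP bins for Illumina sequencing. Variants needed ≥100 reads and ≥30 cells.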
row,Variant,nonsense suppression
1,U2C U4G G19U G26C U57A G73U,≤ 0.026
2,U2A U21G C34G G69A,≤ 0.026
3,U2G C3A,≤ 0.026
4,U2G U20A U22C,≤ 0.026
5,U2G U21G G78U,≤ 0.026
6,C3A A9G A31C U58G G59A,≤ 0.026
7,U2C U57A,0.0292
8,U2A U16G G66U G67U G73A,≤ 0.026
9,U2G C12G U22C A23U C27U U63C G66A U71C,≤ 0.026
10,U2G A23G C27A C77A,≤ 0.026
11,U2G G32A G86U,≤ 0.026
12,U2C G19A C75G C77A,≤ 0.026
13,U2C A23U C83A,≤ 0.026
14,U2C U22G,≤ 0.026
15,C3A A14U U57G U71C,≤ 0.026
16,U2G U4C A9G C34G C77U,≤ 0.026
17,U2G G10U C81G,≤ 0.026
18,U2G A9G G10C A14G C82U G84A,≤ 0.026
19,C3A A9U C77G C80G,≤ 0.026
20,U2G G7U A31G A74U,≤ 0.026
21,C3A C29U A33C A74G,≤ 0.026
22,U2C C64G G73U,≤ 0.026
23,C3A A33C,≤ 0.026
24,U2G G66C,≤ 0.026

row,Variant,nonsense suppression
1,U2C U4A,≤ 0.026
2,U2C U4G,0.0326
3,C3A,≤ 0.026
4,C3A A33G U63G,≤ 0.026
5,U2C U17A U57A,≤ 0.026
6,U2G U21C G26U,≤ 0.026
7,C3A A23C G59U G66U,≤ 0.026
8,U2C A87U,≤ 0.026
9,U2A U55G A60U G66A,≤ 0.026
10,U2G U57C,≤ 0.026
11,U2C C11G C56A,≤ 0.026
12,U2G G26A,≤ 0.026
13,U2G U22G U57A G86C,≤ 0.026
14,U2C A14G G18A U71G G73U G85U A87C,≤ 0.026
15,U2G G10C G26A G69U,≤ 0.026
16,U2C C56U,≤ 0.026
17,U2C C11G C83U,≤ 0.026
18,U2G U17C U22A A33U C68U C81A,≤ 0.026
19,C3A A89G,≤ 0.026
20,U2G G7A,≤ 0.026
21,U2G G7U,≤ 0.026
22,C3A C34G,≤ 0.026
23,U2C C5G A62C G69A,≤ 0.026
24,U2C A14G G18U C34G G88A,≤ 0.026

row,Variant,nonsense suppression
1,U2G C75G,≤ 0.026
2,U2G U21A G67C,≤ 0.026
3,U2C U16G,0.168
4,U2G U22A,≤ 0.026
5,U2G C5A A60C,≤ 0.026
6,C3A C12U U17G A87G,≤ 0.026
7,C3A A30C,≤ 0.026
8,C3A A30G,≤ 0.026
9,U2C C77A A89U,≤ 0.026
10,U2C C75U,0.206
11,U2C U4G U17A A87U G88A,≤ 0.026
12,C3A C5A U21G G66U,≤ 0.026
13,U2G U20C A33G,≤ 0.026
14,U2G G86U,≤ 0.026
15,U2G U20C,≤ 0.026
16,C3A C27U A33G G59U G88U A89G,≤ 0.026
17,U2C G15C G28U A87G A89C,≤ 0.026
18,U2C U8A G10U C29G U63C,≤ 0.026
19,U2G C5U U16A U76A G85U,≤ 0.026
20,U2C C29U C34G G59C,≤ 0.026
21,U2C G6C C11U C27A A33U,≤ 0.026
22,U2G G10C U20A A24G U35G,≤ 0.026
23,U2C G26A G67U,≤ 0.026
24,U2G U16A A23C,≤ 0.026

row,Variant,nonsense suppression
1,U2G C27A A87U,≤ 0.026
2,U2G G15A U21A G25A G69C U70G,≤ 0.026
3,U2A U57G,≤ 0.026
4,C3A A31G,≤ 0.026
5,U2C C3A G18A C83G,≤ 0.026
6,U2C C80A,≤ 0.026
7,U2A U71C G88A,≤ 0.026
8,C3A A54G,≤ 0.026
9,U2C A31G A54G U57G A60C,≤ 0.026
10,U2G C12U G15C,≤ 0.026
11,U2C U17G A54G G59C C83A,≤ 0.026
12,C3A C5G G6C A30U U55A G78A G84A G88C,≤ 0.026
13,C3A A31C C34U G73U,≤ 0.026
14,U2G C3U G66C,≤ 0.026
15,U2G C12U C82A C83G,≤ 0.026
16,U2G A54U,≤ 0.026
17,U2G A74C,≤ 0.026
18,U2C G18U G59C A60U C72A G84C G85U,≤ 0.026
19,U2C C34G C75G,≤ 0.026
20,U2G A14U U20C C27A G85U,≤ 0.026
21,U2A U22C,≤ 0.026
22,U2G G10C U21C U71A,≤ 0.026
23,U2C C27U A60U U70G,≤ 0.026
24,U2C U35C U58G,≤ 0.026

row,Variant,nonsense suppression
1,U2C G6U G19C G84C G85A A89G,≤ 0.026
2,U2G U55A C77G,≤ 0.026
3,C3A C34A G88C,≤ 0.026
4,U2C A23G A62C G67A,≤ 0.026
5,U2C A62U,≤ 0.026
6,U2G G19C C72G,≤ 0.026
7,U2C A23G G25A G73C,≤ 0.026
8,U2C A31G C72U,≤ 0.026
9,C3A A23G G25U C72A,≤ 0.026
10,U2G G10C U20A A24G U35G A74C,≤ 0.026
11,U2C U8A G18C,≤ 0.026
12,C3A A54C C81A,≤ 0.026
13,C3A A23G U70G,≤ 0.026
14,C3A C12G G18U U20G G61U U70G C75G,≤ 0.026
15,U2C G26C,≤ 0.026
16,U2C G26U U57C,≤ 0.026
17,U2C C3A C27A U71A G78A,≤ 0.026
18,U2C A31C,≤ 0.026
19,U2A U16A G65A U76C,≤ 0.026
20,C3A C5G A23C,≤ 0.026
21,U2A U63C G78A,≤ 0.026
22,U2G G6A G18U C29G G61A G65A G85U,≤ 0.026
23,U2A U20C G65C G85A,≤ 0.026
24,U2G G67C G88A,≤ 0.026

row,Variant,nonsense suppression
1,U2C G19C,≤ 0.026
2,U2C U22G A33G G66A C68G,≤ 0.026
3,U2G G28U U35C,≤ 0.026
4,U2G U4G G6U,≤ 0.026
5,U2C A9G G84U,≤ 0.026
6,C3A A13C A30G G67C G84C,≤ 0.026
7,C3A C27U,≤ 0.026
8,C3A C12A C27A C29A G61A G66U G84C A89U,≤ 0.026
9,U2G A33G C72A G84A,≤ 0.026
10,U2G A14G C29G,≤ 0.026
11,C3A C27U A62G,≤ 0.026
12,C3A A9G G25C,≤ 0.026
13,U2G A14G G28U U57G G67C,≤ 0.026
14,U2A U21A G88A,≤ 0.026
15,U2G U8C U20C,≤ 0.026
16,U2A U16G G25C,≤ 0.026
17,C3A A14G,≤ 0.026
18,U2A U58A,≤ 0.026
19,U2G C72A,≤ 0.026
20,U2A U55C U71C G78C,≤ 0.026
21,U2C C29A A33U U35A G67A,≤ 0.026
22,C3A C11A,≤ 0.026
23,C3A C11U,≤ 0.026
24,U2C U16G G25C U55A,≤ 0.026

row,Variant,nonsense suppression
1,U2C U21C U57G,≤ 0.026
2,U2C U21G C68G,≤ 0.026
3,U2C A9U,≤ 0.026
4,U2G U8G A24C G28A A31G G32C C75G,≤ 0.026
5,U2C G15A U17G,≤ 0.026
6,U2A U35G U55A G73U U76G,≤ 0.026
7,U2G U8A A87U,≤ 0.026
8,U2C U16A G19C A62U C79U,≤ 0.026
9,U2C C12G A24C A62U C79A,≤ 0.026
10,C3A C29U A89U,≤ 0.026
11,U2G G7C G61C,≤ 0.026
12,U2G C79A,≤ 0.026
13,U2C C64A,≤ 0.026
14,U2G G26A C34U U55A C75A,≤ 0.026
15,U2G G65U C77A,≤ 0.026
16,U2G G28A A62C,≤ 0.026
17,U2G G19A,≤ 0.026
18,U2C C82U G84A,≤ 0.026
19,C3A C5G U57C U70A,≤ 0.026
20,U2G A87U,0.655
21,U2C A60U U63A,≤ 0.026
22,U2C C12U U16C G86U,≤ 0.026
23,U2C A30U,≤ 0.026

# Source: the RNAGym collection of RNA variant scans (doi:10.1101/gad.245936.114)
